Reference: publication PMC4336329 (PLoS ONE, 2015)
Among all 310,000 compounds or so, about 14,000 (4.5%) showed an effect of 50% or more. Effects have a minus sign here. The list shows a part of the results.

The compounds below were run against human ether-à-go-go-related gene (hERG) potassium channel (human, UniProt Q12809) (assay: primary screen, population patch clamp on CHO cells stably expressing hERG).
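Also: peak tail current of the secondary pulse compared with the same well before compound.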

Chain of human ether-à-go-go-related gene (hERG) potassium channel (Q12809 whole entry, looked up): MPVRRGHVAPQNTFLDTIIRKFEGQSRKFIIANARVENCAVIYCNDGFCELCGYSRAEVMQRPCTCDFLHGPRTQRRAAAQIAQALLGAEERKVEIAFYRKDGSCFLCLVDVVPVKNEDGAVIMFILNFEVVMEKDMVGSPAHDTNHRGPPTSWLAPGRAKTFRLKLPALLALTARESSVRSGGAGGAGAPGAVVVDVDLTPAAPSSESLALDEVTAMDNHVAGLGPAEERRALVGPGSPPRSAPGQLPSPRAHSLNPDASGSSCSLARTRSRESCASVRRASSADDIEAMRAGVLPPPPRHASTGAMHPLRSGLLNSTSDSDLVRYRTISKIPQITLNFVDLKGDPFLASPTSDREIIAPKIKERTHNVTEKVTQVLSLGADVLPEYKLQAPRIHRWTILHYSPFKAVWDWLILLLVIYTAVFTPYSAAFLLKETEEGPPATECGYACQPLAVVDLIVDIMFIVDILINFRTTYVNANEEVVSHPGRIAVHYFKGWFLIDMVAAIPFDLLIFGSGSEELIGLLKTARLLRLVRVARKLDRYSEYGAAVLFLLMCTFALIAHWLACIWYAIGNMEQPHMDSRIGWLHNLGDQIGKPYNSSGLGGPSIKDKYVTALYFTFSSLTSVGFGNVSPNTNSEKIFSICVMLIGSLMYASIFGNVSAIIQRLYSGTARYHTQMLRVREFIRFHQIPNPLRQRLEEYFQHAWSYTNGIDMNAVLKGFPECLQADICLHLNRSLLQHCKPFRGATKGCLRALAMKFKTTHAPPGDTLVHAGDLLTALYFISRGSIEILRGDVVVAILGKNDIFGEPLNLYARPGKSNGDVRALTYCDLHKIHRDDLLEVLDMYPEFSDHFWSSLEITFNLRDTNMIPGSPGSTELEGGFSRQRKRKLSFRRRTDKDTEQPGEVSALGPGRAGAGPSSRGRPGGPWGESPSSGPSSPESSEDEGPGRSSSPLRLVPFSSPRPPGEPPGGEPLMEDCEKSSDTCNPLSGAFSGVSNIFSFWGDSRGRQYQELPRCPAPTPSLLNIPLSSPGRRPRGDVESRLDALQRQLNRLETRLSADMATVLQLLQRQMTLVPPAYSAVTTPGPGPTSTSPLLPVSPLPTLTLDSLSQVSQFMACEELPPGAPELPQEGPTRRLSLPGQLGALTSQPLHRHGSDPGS

SMILES	hERG current change (%, negative = inhibition) at 10uM [%]
O=C(NC1CCCCC1)C1CC(=O)N(c2ccc(Cl)cc2)C1 (centres unmarked)	1.89
Cc1c(C(=O)NCCN2CCOCC2)oc2ccc(S(=O)(=O)N3CCCCCC3)cc12	-17
COc1ccc(-c2cc(C#N)nc(N3CCN(C)CC3)n2)cc1	-42.5
O=C(NC1CCCC1)C(c1cccs1)N(C(=O)c1csnn1)c1ccccc1F (centres unmarked)	9.21
O=C(CCn1nnc2ccccc2c1=O)N[C@H](C(=O)O)c1ccccc1	8.7
O=C(C1CCN(S(=O)(=O)c2ccccc2)CC1)N(CCc1ccccc1)Cc1ccco1	-18.9
Cc1cnn(CCC(=O)NNC(=S)NCC(C)C)c1	-8.49
Cc1ccc(C(=O)Nc2nc3ccccc3n2CCN2CCCC2)cc1	-53.8
COc1ccc(CNC(=O)C(=O)NCC2OCCN2S(=O)(=O)c2ccc3c(c2)OCCO3)cc1 (centres unmarked)	-3.01
COc1ccccc1NC(=O)C(=O)NCCC1CCCCN1S(=O)(=O)c1cccs1 (centres unmarked)	4.76
COc1ccc(CN(C)C(C)C(=O)NC2CCCc3ccccc32)cc1 (centres unmarked)	-29.2
CCN(C(=O)COC(=O)c1cc(S(=O)(=O)N(C)C)ccc1Cl)C1CCS(=O)(=O)C1 (centres unmarked)	2.92
CCN(c1ccccc1)S(=O)(=O)c1ccc(Cl)c(NC(=O)CSc2nncs2)c1	-24.2
CN(C(=O)COC(=O)c1ccc(=O)n(Cc2ccccc2)n1)c1ccccc1	-5.17
CC(C)CSc1nc2ccccc2c(=O)[nH]1	3.93
COc1ccc(NC(=O)CSc2nnc(Cc3cccn3C)n2-c2ccc(OC)cc2)cc1	-21.2
O=C(Cc1ncc(C(F)(F)F)cc1Cl)NCCc1ccccn1	12.3
O=C1CC(c2ccccc2)CC(=O)C1=CN1CCCC1 (centres unmarked)	14.2
CCOC(=O)c1cccc(NS(=O)(=O)c2ccc(NC(C)=O)cc2)c1	-11.7
Cc1nc(NCCO)c(C#N)c2c1COC(C)(C)C2	-4.18
CCSc1nnc(Nc2ccccc2)s1	-2.04
Cc1ccc(C)c(NC(=O)COC(=O)c2ccc3ccccc3n2)c1	-9.7

SMILES	hERG current change (%, negative = inhibition) at 10uM [%]
COc1ccc(C(=O)OCC(=O)c2ccc[nH]2)cc1	-4.92
Cc1nc2sc(C(c3ccc(Cl)cc3)N3CC(C)OC(C)C3)c(O)n2n1 (centres unmarked)	2.69
CCCCN(C)C(=S)Nc1ccsc1C(=O)OC	-5.36
O=C(CCc1c[nH]c2ccccc12)NCCOc1ccccc1	-20.3
CC(C)CNC(=O)c1ccccc1NC(=O)CN(c1ccccc1)S(=O)(=O)N(C)C	5.98
CC(=O)NC(CCS(C)(=O)=O)C(=O)Nc1cc(C)ccc1C (centres unmarked)	1.16
O=C(NNC(=O)C1CCN(S(=O)(=O)c2ccc(Cl)cc2)CC1)c1ccccc1O	-2.13
O=C(CNC(=O)N1CC(=O)Nc2ccccc21)NCc1ccccc1	19.6
O=C(CN1N=C(c2ccccc2)CCC1=O)NCc1ccco1	0.243
Cc1cc2oc(=O)cc(-c3cc4ccccc4o3)c2cc1O	15.4
Cc1cc2ncn(-c3ncccc3[N+](=O)[O-])c2cc1C	-0.529
COC(=O)C1=C(C)NC(=O)/C1=C\c1cc(C)n(-c2cccc(C)c2)c1C	-1.25
CC(C)(C)c1ccc(C(=O)NCC(=O)O)cc1	34.4
CCC(c1nnc(SCC(=O)Nc2c(F)cccc2F)n1Cc1ccccc1)N(C)C (centres unmarked)	7.75
CC1CCCN(C(=O)c2ccc(S(=O)(=O)N3CCC(c4nc5ccccc5s4)CC3)cc2)C1 (centres unmarked)	-6.75
CCc1nc2ccccc2c(C(=O)Oc2cccc3cccnc23)c1C	3.71
CC(C)CN(C(=O)COC(=O)CCc1c[nH]c2ccccc12)c1c(N)n(Cc2ccccc2)c(=O)[nH]c1=O	-4.57
C=CCNC(=O)NC(=O)CSc1nc2cc([N+](=O)[O-])ccc2n1-c1cccc(C(F)(F)F)c1	20.8
CCC(=O)N1CCc2cc(Br)cc(S(=O)(=O)NCCCN(C)Cc3ccccc3)c21	-23.8
O=C(NCc1cccnc1)/C(=C\c1ccc(-c2ccc(Br)cc2)o1)S(=O)(=O)c1ccccc1	-16.5
COc1cc2c(cc1OC)CN(CC(=O)Nc1cccc(C(F)(F)F)c1)CC2	5.01
Cc1ccccc1-n1c(=S)[nH]c2nc3c(cc2c1=O)CCCC3	17.8
